The results in this text go back to US20090074782A1 (ONCOMED PHARMACEUTICALS, published 2009).

Test [1] deals with T1, FLAG-LGR5-CD4™ (human, UniProt O75473 22-564).
T1 construct: domain: transmembrane domain; Transiently expressed on HEK 293 cells together with GFP; also called variant cell-surface LGR5 protein; cell-associated LGR5 construct; not shown: N-terminal FLAG tag; transmembrane domain of CD4
T1 sequence: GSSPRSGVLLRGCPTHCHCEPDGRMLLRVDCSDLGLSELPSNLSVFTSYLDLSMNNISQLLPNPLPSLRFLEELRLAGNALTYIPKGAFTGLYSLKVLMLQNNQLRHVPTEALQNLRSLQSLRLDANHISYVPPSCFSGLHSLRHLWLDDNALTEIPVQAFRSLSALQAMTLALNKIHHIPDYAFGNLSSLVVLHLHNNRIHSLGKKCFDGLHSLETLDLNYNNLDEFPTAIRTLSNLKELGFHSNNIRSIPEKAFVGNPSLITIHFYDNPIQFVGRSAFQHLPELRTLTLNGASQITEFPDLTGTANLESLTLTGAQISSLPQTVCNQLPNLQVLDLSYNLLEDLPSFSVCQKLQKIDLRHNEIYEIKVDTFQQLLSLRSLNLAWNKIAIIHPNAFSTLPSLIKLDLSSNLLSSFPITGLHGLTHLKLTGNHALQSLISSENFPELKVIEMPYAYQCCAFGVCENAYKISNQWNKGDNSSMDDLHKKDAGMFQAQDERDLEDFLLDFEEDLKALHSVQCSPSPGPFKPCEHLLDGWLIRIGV
As to the kind of experiment: FACS (FIG. 7C), RSPO1-Fc on HEK 293 cells transfected with FLAG-LGR5-CD4™ and GFP, with heparin. How it is done: (§1) To determine whether other RSPO family members also were able to bind to LGR5 additional studies were performed examining the interaction of each RSPO family member with LGR5. HEK 293 cells were transiently transfected with FLAG-LGR5-CD4™ and GFP. After 48 hours, cells were suspended in ice cold PBS containing 2% FCS heparin and then incubated on ice in the presence of RSPO1-Fc, RSPO2-Fc, RSPO3-Fc, RSPO4-Fc, FZD8-Fc, as indicated (FIG. 7C) or a FLAG antibody as a positive control. Each RSPO family member interacted with the LGR5 transfected cells.

The target of test [2] is T1, FLAG-LGR5-CD4™. As to the kind of experiment: FACS, RSPO2-Fc on HEK 293 cells transfected with FLAG-LGR5-CD4™ and GFP, with heparin. How it is done: as §1
For test [3], the target named is T1, FLAG-LGR5-CD4™. As to the kind of experiment: FACS, RSPO4-Fc on HEK 293 cells transfected with FLAG-LGR5-CD4™ and GFP, with heparin. How it is done:
as §1

Test [4] has as its target T1, FLAG-LGR5-CD4™. As to the kind of experiment: FACS, RSPO3-Fc on HEK 293 cells transfected with FLAG-LGR5-CD4™ and GFP, with heparin. The procedure: as §1
(In general: A flow cytometer gives signals particle by particle.)

B1: RSPO1-Fc (Fc fusion)
chain: SRGIKGKRQRRISAEGSQACAKGCELCSEVNGCLKCSPKLFILLERNDIRQVGVCLPSCPPGYFDARNPDMNKCIKCKIEHCEACFSHNFCTKCKEGLYLHKGRCYPACPEGSSAANGTMECSSPAQCEMSEWSPWGPCSKKQQLCGFRRGSEERTRRVLHAPVGDHAACSDTKETRRCTVRRVPCPEGQKRRKGGQGRRENANRNLARKESKEAGAGSRRRKGQQQQQQQGTVGPLTSAGPAGRA[… human IgG1 Fc …]
notes: also called soluble RSPO1
For B1, the binding result in test [1] is on record as “binds”.

B2: RSPO2-Fc (Fc fusion)
chain: QGNRWRRSKRASYVSNPICKGCLSCSKDNGCSRCQQKLFFFLRREGMRQYGECLHSCPSGYYGHRAPDMNRCARCRIENCDSCFSKDFCTKCKVGFYLHRGRCFDECPDGFAPLEETMECVEGCEVGHWSEWGTCSRNNRTCGFKWGLETRTRQIVKKPVKDTILCPTIAESRRCKMTMRHCPGGKRTPKAKEKRNKKKKRKLIERAQEQHSVFLATDRANQGRA[… human IgG1 Fc …]
As for B2, the binding result in test [2] is listed as “binds”.

B3: RSPO4-Fc (Fc fusion)
chain: LNRRKKQVGTGLGGNCTGCIICSEENGCSTCQQRLFLFIRREGIRQYGKCLHDCPPGYFGIRGQEVNRCKKCGATCESCFSQDFCIRCKRQFYLYKGKCLPTCPPGTLAHQNTRECQGECELGPWGGWSPCTHNGKTCGSAWGLESRVREAGRAGHEEAATCQVLSESRKCPIQRPCPGERSPGQKKGRKDRRPRKDRKLDRRLDVRPRQPGLQPGRA[… human IgG1 Fc …]
In the case of B3, the binding result in test [3] is reported as “binds”.

B4: RSPO3-Fc (Fc fusion)
chain: QNASRGRRQRRMHPNVSQGCQGGCATCSDYNGCLSCKPRLFFALERIGMKQIGVCLSSCPSGYYGTRYPDINKCTKCKADCDTCFNKNFCTKCKSGFYLHLGKCLDNCPEGLEANNHTMECVSIVHCEVSEWNPWSPCTKKGKTCGFKRGTETRVREIIQHPSAKGNLCPPTNETRKCTVQRKKCQKGERGKKGRERKRKKPNKGESKEAIPDSKSLESSKEIPEQRENKQQQKKRKVQDKQKSVSVSTVHGRA[… human IgG1 Fc …]
Turning to B4, the binding result in test [4] is reported as “binds”.
